# In PubChem BioAssay AID504832 (National Center for Advancing Translational Sciences (NCATS), 2011):
# The whole screen tested about 310,000 compounds, of which about 18,000 (5.8%) were called active. The shares of active, inactive and inconclusive entries below differ from those in the screen. The call rests on the fitted dose curve; in most records, active means well fitted inhibition curve with a large enough effect; inconclusive means small, poorly fitted or top-dose-only effect, or another doubt; inactive means no such curve, though single readings can be large or run the other way. No potency is given beside an inconclusive call; the fits are too rough.
# Test: Primary qHTS for delayed death inhibitors of the malarial parasite plastid, 48 hour incubation
# Details: P. falciparum luciferase growth in erythrocytes; series mostly up to 28.7 µM
# In short: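 Firefly luciferase activity from engineered P. falciparum reports growth; inhibitors lower the luminescent signal. Cultures contained 2% hematocrit erythrocytes at 0.1% final parasitemia.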
# Potency means the concentration at half of the fitted maximal effect; tags describe the fitted curve by direction and shape.
row,SMILES,Potency
1,O=c1n(Cc2ccccc2)c2cc(Cl)cnc2n1Cc1ccccc1,"inconclusive [inhibitor, single point]"
2,Cc1cccc(NC(=S)N(CCCN2CCOCC2)C(C)c2cc3ccccc3o2)c1 (centres undefined),"inconclusive [inhibitor, single point]"
3,COc1cc(OC)cc(C(=O)N[C@H](C(=O)Nc2nc3ccc(S(C)(=O)=O)cc3s2)C(C)C)c1,active: 4.65 µM
4,CSc1ccccc1C(=O)N1CCOCC1,inactive
5,CCN(c1ccccc1)S(=O)(=O)c1ccc(C(=O)NCCCN2CCOCC2)cc1,"inconclusive [inhibitor, single point]"
6,N=C1c2ccccc2CN1NC(=O)c1cccc(S(=O)(=O)N2CCCCC2)c1,"inconclusive [inhibitor, partial curve, poor fit]"
7,CCOC(=O)C(C)Sc1nc(-c2ccccn2)ncc1OC (centres undefined),active: 13.1 µM
8,CCOc1ccc(C(=O)c2cnc3ccccc3c2N2CCN(CC)CC2)cc1,"inconclusive [inhibitor, single point]"
9,COc1ccc(CNc2ncc(-c3ccccc3)n2C)c(OC)c1OC,"inconclusive [inhibitor, single point]"
10,C=CCn1c(SC(C)C(=O)NC2CC2)nnc1-c1ccoc1C (centres undefined),"inconclusive [inhibitor, single point]"
11,CC1CCCC(NC(=O)c2cc(-c3ccncc3)nc3ccccc23)C1C (centres undefined),inactive
12,CCc1nc(CNC(=O)C2CCC(=O)N(Cc3ccccc3F)C2)no1 (centres undefined),"inconclusive [inhibitor, single point]"
13,Cc1nc(NCCc2ccc(S(N)(=O)=O)cc2)c2c(C)c(C)sc2n1,"inconclusive [inhibitor, single point]"
14,Nn1c(COc2ccccc2F)nnc1SCC(=O)NC1CC1,inactive
15,N#CC(C#N)=Cc1ccc(C=C(C#N)C#N)cc1,"inconclusive [inhibitor, partial curve]"
16,O=C(CSc1nnc(CNC(=O)c2ccccc2)o1)Nc1ccc2c(c1)OCCO2,"inconclusive [inhibitor, partial curve]"
17,FC(F)(F)c1ccc(C2[C@H]3CN(Cc4cccnc4)[C@H](c4ccccc4)C34CC2(c2ccccc2)C4)cc1 (some centres undefined),active: 2.94 µM
18,COc1ccc(C2C=C(C34CC5CC(CC(C5)C3)C4)NC(=S)N2)cc1OC (centres undefined),"inconclusive [inhibitor, partial curve]"
19,Cc1cc(O)c(NC(=O)c2cccc([N+](=O)[O-])c2)cc1C,inactive
